The text below walks through data of PMC4336329 (PLoS ONE, 2015).

Structures are written as SMILES. Screen size: about 310,000 compounds; about 14,000 (4.5%) showed an effect of 50% or more. The effect is printed as a negative number. Some of the results follow.
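Note: peak tail current of the secondary pulse compared with the same well before compound.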

Sequence of human ether-à-go-go-related gene (hERG) potassium channel (Q12809 whole entry, looked up): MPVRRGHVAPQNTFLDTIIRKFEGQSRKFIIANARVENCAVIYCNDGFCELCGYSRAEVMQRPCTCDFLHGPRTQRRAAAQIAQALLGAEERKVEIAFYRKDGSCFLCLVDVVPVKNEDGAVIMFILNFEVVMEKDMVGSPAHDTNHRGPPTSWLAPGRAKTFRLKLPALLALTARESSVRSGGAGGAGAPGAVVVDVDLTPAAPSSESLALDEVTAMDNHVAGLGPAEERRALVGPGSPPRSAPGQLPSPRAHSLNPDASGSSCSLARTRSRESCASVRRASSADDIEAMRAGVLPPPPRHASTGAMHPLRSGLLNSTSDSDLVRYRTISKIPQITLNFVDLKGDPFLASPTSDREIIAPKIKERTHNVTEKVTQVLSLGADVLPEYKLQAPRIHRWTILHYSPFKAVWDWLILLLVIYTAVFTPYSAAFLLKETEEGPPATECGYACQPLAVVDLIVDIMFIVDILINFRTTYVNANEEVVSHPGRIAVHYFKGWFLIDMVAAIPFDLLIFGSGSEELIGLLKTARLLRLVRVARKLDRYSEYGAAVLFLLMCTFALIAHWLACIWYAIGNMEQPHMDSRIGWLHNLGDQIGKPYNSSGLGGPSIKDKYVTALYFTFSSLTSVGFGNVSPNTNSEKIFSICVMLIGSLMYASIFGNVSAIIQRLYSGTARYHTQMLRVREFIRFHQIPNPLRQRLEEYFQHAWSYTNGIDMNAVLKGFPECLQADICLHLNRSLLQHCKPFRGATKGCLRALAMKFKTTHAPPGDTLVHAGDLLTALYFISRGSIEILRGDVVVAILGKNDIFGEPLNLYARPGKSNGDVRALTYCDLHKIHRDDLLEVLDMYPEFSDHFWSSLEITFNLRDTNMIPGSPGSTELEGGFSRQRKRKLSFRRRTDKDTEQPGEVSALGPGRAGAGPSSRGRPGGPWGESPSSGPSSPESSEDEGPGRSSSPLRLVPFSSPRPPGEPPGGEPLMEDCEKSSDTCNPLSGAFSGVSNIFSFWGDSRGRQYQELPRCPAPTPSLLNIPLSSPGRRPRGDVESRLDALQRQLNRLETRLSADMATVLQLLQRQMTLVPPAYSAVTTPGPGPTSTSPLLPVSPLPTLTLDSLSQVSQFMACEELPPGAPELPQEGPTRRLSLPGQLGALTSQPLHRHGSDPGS

The assay addresses human ether-à-go-go-related gene (hERG) potassium channel (human, UniProt Q12809). In words: primary screen, population patch clamp on CHO cells stably expressing hERG.
On to `CCOC(=O)Cc1nn(CC)c(=O)c2ccccc12`, for which the “hERG current change (%, negative = inhibition) at 10uM” value came to 27.5%. With `CC1Cc2ccccc2N1C(=O)CSc1nnc2c(n1)[nH]c1ccc(F)cc12` (stereo not shown), the “hERG current change (%, negative = inhibition) at 10uM” value stood at 12.6%. Regarding `Cc1[nH]c(C)c(S(=O)(=O)NCc2ccc(Cl)cc2)c1C(=O)N1CCCC1`, the “hERG current change (%, negative = inhibition) at 10uM” value is -2.62%. Turning to `O=C1Nc2cc(C(=O)N3CCOCC3)ccc2SC1N1CCOCC1` (stereo not shown), the “hERG current change (%, negative = inhibition) at 10uM” value is on record as 7.46%. With `Cc1ccc(C(=O)C2CCN(CC(=O)Nc3nc(C)cs3)CC2)cc1` the figure was -24.8%. In the case of `COC(=O)c1cccnc1NC(=S)NC(C)C` it was 19.2%. In the case of `C/C(=N\NS(=O)(=O)c1ccc(C)cc1)c1ccc(C)s1` it was 19.9%. Regarding `O=C(Cn1nnc(-c2ccc(CN3CCOCC3)cc2)n1)NC1CCCCC1`, the “hERG current change (%, negative = inhibition) at 10uM” value is -12.4%. In the case of `CCCC(c1nnnn1C(C)(C)CC)N1CCN(C2CCCC2)CC1.Cl` (stereo not shown) it was -35.3%. In the case of `c1ccc2nc3c(cc2c1)CCCCCC3` it was -11.8%. In the case of `CN1CCC/C1=C/C=C1\SC(=S)NC1=O` it was 5.38%; in that of `Cc1cccc(NC(=O)CSCC(=O)Nc2cccc3ncccc23)c1`, 3.27%. `CCc1ccc(NC(=O)CCS(=O)(=O)c2ccc(Br)cc2)cc1`: the “hERG current change (%, negative = inhibition) at 10uM” value is given as 24%. Take `O=C(NCCCN1CCOCC1)c1ccc2ccccc2c1`: the “hERG current change (%, negative = inhibition) at 10uM” value is -2.68%.

On to `COc1ccccc1NC(=O)C1=C(C)Nc2nnnn2C1c1ccccn1` (stereo not shown), for which the “hERG current change (%, negative = inhibition) at 10uM” value is 14.2%. In the case of `COCCN(C(=O)c1ccc(C#N)cc1)c1c(N)n(Cc2ccccc2)c(=O)[nH]c1=O` it was 23.4%. With `CCOC(=O)Nc1ccc(=O)n(Cc2c(Cl)cccc2Cl)c1` the figure was -16.8%; with `Cl.O=C(/C=C/c1cn(-c2ccccc2)nc1-c1cccnc1)NCCN1CCOCC1`, -5.55%; with `COc1ccc(NC(=O)CN2CCCCCC2)cc1OC`, 3.79%.

In the case of `CCC1C/C(=C/c2ccco2)C(=O)/C(=C/c2ccco2)C1` (stereo not shown), the “hERG current change (%, negative = inhibition) at 10uM” value worked out at 4.01%. On to `Cc1cc(NS(=O)(=O)c2ccc(NC(=S)NC(=O)c3ccccc3)cc2)no1`, for which the “hERG current change (%, negative = inhibition) at 10uM” value is listed as -0.125%.

As for `Cc1ccc(S(=O)(=O)N(CC(=O)NC2CCCC2)c2cccc(C)c2)cc1`, the “hERG current change (%, negative = inhibition) at 10uM” value was -43.9%.

Take `COc1ccc(-n2nnnc2SCC(=O)Nc2nnc(C)s2)cc1OC`: the “hERG current change (%, negative = inhibition) at 10uM” value is -8.15%. With `C=C(C)CCC(C)N1CCC(n2nccc2NC(=O)CCOc2ccccc2)CC1` (stereo not shown) the figure was -38.1%. With `O=C(CN(Cc1ccco1)C(=O)c1cc(=O)[nH]c2ccccc12)Nc1ccccc1Br` the figure was -53.5%; with `CCN(CC)c1ccc(NC(=O)c2ccccc2Br)cc1S(=O)(=O)Nc1ccccc1OC`, 0.614%.

As for `CNCCCOc1ccc(C)cc1Br.O=C(O)C(=O)O`, the “hERG current change (%, negative = inhibition) at 10uM” value was -10.9%.

Take `O=c1ccc(Cl)cn1Cc1ccccc1F`: the “hERG current change (%, negative = inhibition) at 10uM” value stood at 5.34%. For `CCOC(=O)C1(Cc2ccc(OC)cc2)CCN(C(=O)Cn2cnnn2)CC1`, the “hERG current change (%, negative = inhibition) at 10uM” value is on record as -4.37%. With `COc1ccccc1-c1csc(-n2ncc(C#N)c2N)n1` the figure was 46.6%; with `O=C(/C=C/c1ccccc1Cl)N(Cc1ccccc1)C1CCS(=O)(=O)C1` (stereo not shown), -7.94%; with `COc1ccc(C2(C)NC(=O)N(CC(=O)NC3CCCC3)C2=O)cc1OC` (stereo not shown), 23.7%. With `COC(=O)c1ccccc1NC(=O)CCCCCn1nnc2ccccc2c1=O` the figure was -4.46%. On to `COc1cc(OC)cc(C(=O)N/N=C/c2ccc(OC)c(COc3ccc4ccccc4c3)c2)c1`, for which the “hERG current change (%, negative = inhibition) at 10uM” value is 15.1%. In the case of `O=C(Nc1cccc2ncccc12)C(c1ccccc1)c1ccccc1` it was -20.5%; in that of `O=S1(=O)N=C(N2CCc3ccccc3C2)c2ccccc21`, -39%; in that of `COc1ccc(C(CC(=O)O)NC(=O)c2sc3ccccc3c2Cl)cc1` (stereo not shown), 15.6%. In the case of `C=CCSc1nc2ccccc2c(=O)n1C1CCOC(C)(C)C1` (stereo not shown) it was -11%; in that of `O=c1c2cc(N3CCOCC3)ccc2[nH]c(=S)n1CCCN1CCN(c2ccccc2F)CC1`, -9.29%; in that of `CC(C(=O)N1CCc2ccccc21)N1CCN(Cc2ccccc2)CC1` (stereo not shown), -34%. `CC(C)C(c1nnnn1Cc1ccco1)N1CCN(c2cccc(Cl)c2)CC1` (stereo not shown): the “hERG current change (%, negative = inhibition) at 10uM” value was -2.44%. As for `Cc1ccc(Cl)cc1NC(=O)CCn1cccc1`, the “hERG current change (%, negative = inhibition) at 10uM” value is 4.25%. As for `O=C(NNC(=O)c1ccc(-n2cncn2)c([N+](=O)[O-])c1)c1ccccc1`, the “hERG current change (%, negative = inhibition) at 10uM” value turned out to be 9.34%. Turning to `COc1ccc(CCNCc2ccsc2)cc1OC`, the “hERG current change (%, negative = inhibition) at 10uM” value stood at 1.86%. Turning to `COc1ccc(CC(=O)n2[nH]c(=O)cc(C)c2=O)cc1OC`, the “hERG current change (%, negative = inhibition) at 10uM” value is -1.22%. In the case of `CCSC1=C(C#N)C(c2ccc(C)s2)CC(=O)N1` (stereo not shown) it was -4.59%; in that of `O=c1c2ccccc2c(-c2ccccc2)nn1Cc1ccc(Cl)cc1`, 17.1%; in that of `C#CCSc1nc(=O)c2cccnc2n1-c1ccc(C)cc1`, -27.9%. With `COc1cc(/C=C/C(=O)NCCn2c(C)cc3ccccc32)cc(OC)c1OC` the figure was -20.1%; with `C/C(=C\C(=O)c1ccc(C)cc1)NCc1ccc(F)cc1`, -5.59%; with `NCCc1cnc[nH]1`, 3.74%. In the case of `CSCCC(NC(=O)c1ccccc1)C(=O)OCC(=O)c1ccc[nH]1` (stereo not shown), the “hERG current change (%, negative = inhibition) at 10uM” value was -11.6%. In the case of `CCc1cc(C(=O)NC2CCCc3c2cnn3-c2cccc(C)c2C)n(C)n1` (stereo not shown) it was 5.44%; in that of `CC(C)Sc1nc2sc3c(c2c2nnc(SCC(=O)NCc4ccco4)n12)CCCC3`, -13.3%. Regarding `COc1ccc(NC(=O)C2CCC(CNC(=O)[C@@H]3Cc4ccccc4CN3)CC2)cc1` (stereo partly shown), the “hERG current change (%, negative = inhibition) at 10uM” value is given as -0.295%. In the case of `NC(=O)Cc1ccc(C(=O)c2ccccc2F)s1` it was 9.26%; in that of `Cn1cc(CNC(=O)C2CCC(=O)N(Cc3cccc(C(F)(F)F)c3)C2)cn1` (stereo not shown), 7.63%. In the case of `CC(C)c1ccc(NC2CCCN(C(=O)c3cnsn3)C2)cc1` (stereo not shown), the “hERG current change (%, negative = inhibition) at 10uM” value turned out to be 4.09%.
